# Laboratory results from the supplement of paper PMC3334620.
# Over roughly 33,000 sequences, “E-score (-0.5 to 0.5)” has its median near -0.054; the highest 2% begin near 0.35. Some of the results follow.
# Biological target: T1, Stb5 (UniProt P38699)
# T1 sequence: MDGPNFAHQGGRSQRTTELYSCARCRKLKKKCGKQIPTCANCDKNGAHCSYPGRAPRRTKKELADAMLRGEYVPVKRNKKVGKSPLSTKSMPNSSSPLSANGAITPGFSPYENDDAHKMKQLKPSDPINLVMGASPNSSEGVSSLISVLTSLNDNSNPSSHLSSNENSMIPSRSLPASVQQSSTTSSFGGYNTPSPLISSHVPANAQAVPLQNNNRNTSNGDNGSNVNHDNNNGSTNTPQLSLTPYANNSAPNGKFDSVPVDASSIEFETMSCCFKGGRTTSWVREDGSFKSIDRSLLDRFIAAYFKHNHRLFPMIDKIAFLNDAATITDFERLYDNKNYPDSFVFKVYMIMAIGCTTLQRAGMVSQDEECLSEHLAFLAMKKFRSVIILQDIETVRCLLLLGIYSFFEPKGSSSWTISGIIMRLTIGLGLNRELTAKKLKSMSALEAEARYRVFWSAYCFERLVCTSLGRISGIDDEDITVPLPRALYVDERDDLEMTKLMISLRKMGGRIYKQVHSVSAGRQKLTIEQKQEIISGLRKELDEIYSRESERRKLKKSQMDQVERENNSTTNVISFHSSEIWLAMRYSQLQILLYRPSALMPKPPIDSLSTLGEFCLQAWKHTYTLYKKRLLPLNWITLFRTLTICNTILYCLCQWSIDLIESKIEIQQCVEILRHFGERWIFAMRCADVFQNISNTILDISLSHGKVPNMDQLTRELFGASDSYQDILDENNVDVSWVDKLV
# Assay: PBM E-score (8-mer binding enrichment) (E-score (-0.5 to 0.5)); higher = stronger / more preferred TF binding; most listed sequences are background and not binding sites
# Conditions: protein concentration: 200 nM; construct: GST-full length
# Procedure, shortened: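 E-scores (a modified Wilcoxon-Mann-Whitney statistic) were assigned by the Universal PBM Analysis Suite to every ungapped eight-base word pooled with its reverse complement. The input came from universal all-10-mer Agilent arrays made double-stranded by primer extension and probed with GST-tagged yeast transcription factors at about 100-200 nM. Fluorescent anti-GST detected bound protein, and masliner normalised the scans.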
row,Sequence,PBM E-score
1,ATAAATAC,0.0349
2,AAGTAATG,-0.146
3,CGGACGGC,0.234
4,AATGCTAG,-0.261
5,ATGTGGCA,-0.0856
6,AGTTCGCC,-0.139
7,AAGCGATA,-0.286
8,CGGAGATC,0.159
9,CAACTCTA,-0.133
10,ACCTTATG,-0.186
11,GTCAATAA,0.0835
12,TATGATGA,-0.0881
13,CGCTACAA,0.0432
14,CATGATGG,-0.302
15,CGGCACAC,0.0721
16,ACAGCCTG,-0.309
17,AGGTAGCC,-0.211
18,GAAGCAGC,-0.148
19,CATATTGC,0.0446
20,CATCGGCC,0.263
21,ATAACACA,-0.107
22,AAGTAGTG,-0.168
23,ATTGTTGA,-0.236
24,ATGCAAGC,-0.182
25,ATAGATCA,-0.0273

row,Sequence,PBM E-score
1,AGTTAGAC,-0.146
2,GGTAGCAA,0.0542
3,TATCTAGA,-0.237
4,CTGGCAAC,-0.135
5,AGTCAGAA,-0.162
6,ACGAAGAG,-0.096
7,AGAGCTAA,-0.215
8,CCGGATGC,0.166
9,ATAGTTGA,-0.203
10,ATACTCTG,0.0573
11,AAGGAGAA,-0.179
12,CTTGATTC,0.0124
13,ACCCAACA,-0.144
14,ATCTAATC,-0.0546
15,CTAGTAAG,-0.147
16,CTTGAGTA,-0.0445
17,ACAGAAGG,-0.102
18,ACGCTACT,0.0893
19,ATTTATAA,0.123
20,AGATCATC,-0.152
21,CAGGCAGC,0.072
22,CCCCCCAC,-0.252
23,TACATGTA,0.046
24,CCAGACTA,-0.258
25,ATGGGACC,0.0255

row,Sequence,PBM E-score
1,CCAATTAG,-0.119
2,CTAGCGCA,-0.0859
3,CTCGGGAA,0.12
4,AGTAACAC,-0.0523
5,AAAAGATT,-0.0281
6,CAGAGCTA,-0.249
7,CGCACAAG,-0.0946
8,CACATTTC,0.0884
9,GGTGCCTA,0.0587
10,CAATACAA,-0.176
11,CATAACTA,0.05
12,GAGGAGAA,-0.0895
13,CAGGGAGC,-0.159
14,CTCAGTGC,0.0351
15,CGGGTACG,0.0618
16,CTTAGCCA,-0.0743
17,ACGGCACA,0.0761
18,AACGGACT,0.38
19,GTTTATTA,0.2
20,GTCCTCCA,-0.0381
21,ACATCCAA,-0.101
22,GGGCGGAA,0.241
23,CCTAGGAG,-0.21
24,TAATAGTA,-0.0237
25,ATCGGAAG,0.0789

row,Sequence,PBM E-score
1,CCGATCAA,0.267
2,GGATGAAC,-0.0337
3,GTCGGCCA,0.224
4,CCCTAAAA,0.0709
5,ACCAAGCG,0.103
6,ATGAAAAT,-0.0438
7,TAAGAGGA,-0.036
8,ATGGCCAC,-0.246
9,CAGTTCAG,-0.164
10,AAAATTAC,-0.0201
11,AAGGCGAG,-0.388
12,GTTGAAAA,0.1
13,CCGTCTAA,0.238
14,CTGTAAGA,-0.14
15,AACCGACT,0.0177
16,CGACTGCA,-0.13
17,AACAAACC,0.117
18,AGTGACTA,-0.0125
19,ACAGATGC,-0.224
20,CTCAAGAC,-0.143
21,ACCTATAG,-0.166
22,AGGCCATG,-0.246
23,GCAAAAAC,-0.0141
24,CCTCATAC,-0.0997
25,TCAGTAAA,-0.0602

row,Sequence,PBM E-score
1,CTCACCCC,0.155
2,GTTAACTA,0.00876
3,CGCCGCGA,0.289
4,CGTCCCAA,-0.247
5,CATCTCCC,0.012
6,GGGCACAA,0.117
7,ACGGTCCG,0.282
8,GTCGAAGA,-0.229
9,CGTAGACG,-0.163
10,CGACGTAC,-0.107
11,GCGTGTAA,-0.0616
12,CGCCCTAC,-0.0493
13,AACAACTC,-0.22
14,ATATGAGA,-0.0673
15,CCCATTAG,-0.361
16,ACTAATTG,-0.175
17,GAGAGTGC,-0.209
18,ACGTCGAG,-0.295
19,GAACGTGC,-0.258
20,CGTGCAAA,-0.0367
21,CCAGATCC,-0.138
22,GGCAAACA,-0.0004
23,ATAAACAT,-0.02
24,GAATTGGC,-0.104
25,GTATGCAA,-0.173

row,Sequence,PBM E-score
1,AACCGGTA,0.261
2,ACCGTGTA,-0.101
3,TAAGCTGA,-0.0108
4,CAATCCAC,-0.0417
5,CTGAAGAA,-0.291
6,CTCACCAC,-0.136
7,TAACCTAA,-0.0712
8,TCATATAA,-0.146
9,ATCGAATA,-0.0287
10,AGCTGCCT,-0.132
11,CCACCAGA,-0.337
12,TAAATTCA,-0.0238
13,GTACATCA,0.0592
14,CTCTAGAA,-0.315
15,GGGAGAGA,-0.307
16,AGCTTTAG,-0.226
17,CCTTGGGC,-0.0658
18,ATACAAGC,0.0419
19,CGACTGGC,0.152
20,ACATGTGA,-0.136
21,CTGTTGAC,-0.0838
22,CAGGGTGG,-0.174
23,ACTTTATA,0.122
24,CAAAATAA,-0.0195
25,AGATACGC,-0.0289

row,Sequence,PBM E-score
1,ACGTCCTC,-0.203
2,ATTCTACC,0.146
3,GATGACCA,-0.0925
4,CACATATC,0.0209
5,ATCTGAGA,-0.2
6,ATTGACTC,-0.0558
7,ATGTTCGA,-0.112
8,GTCAGGGA,-0.111
9,TACGGATA,0.071
10,GCTCGGTA,0.176
11,AGCATAAC,-0.11
12,ATAACGTC,-0.0673
13,GCTTGAAA,-0.11
14,GCGCTTCC,-0.00015
15,GCCCCAAA,0.0255
16,GGCAGACA,0.0519
17,TCGCTTCA,-0.158
18,CTTTGTCA,-0.036
19,ACCGCAAG,0.265
20,AGGAATGG,-0.299
21,GATCATAC,0.0167
22,AGACTTCC,-0.178
